In PubChem BioAssay AID686978 (National Center for Advancing Translational Sciences (NCATS), 2013):
Among all 420,000 compounds or so, about 64,000 (15%) were called active. The shares of active, inactive and inconclusive entries below differ from those in the screen. Calls come from the whole dose curve; as a rule, active = well fitted inhibition curve with a large enough effect; inconclusive = small, poorly fitted or top-dose-only effect; inactive = flat fitted curve, though single readings scatter. Potencies of inconclusive entries are left out as doubtful fits.

Assay: qHTS for Inhibitors of human tyrosyl-DNA phosphodiesterase 1 (TDP1): qHTS in cells in absence of CPT; note: nearly all actives have a fitted effect of over 55% in size
Settings: DT40 Tdp1-/- hTDP1 cells, no CPT, ATP luminescence, 48 h; activity change, negative = growth inhibition: at 46.2 µM (top of the series) unless noted
Procedure, shortened: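 Chicken DT40 Tdp1-/- cells complemented with human TDP1, screened without camptothecin (DMSO vehicle only), 400 cells/well. Compounds pin-transferred, cells incubated at 37 °C for at least 48 hr. Growth read as ATP-dependent luminescence (CellTiter-Glo, 30 min at RT).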
% is set by controls: 0 for no effect and ±100 for the full control effect; potency is the fitted concentration of half-maximal effect; tags give direction and shape of the fitted curve.

SMILES	Potency	activity change, negative = growth inhibition
CCOC(=O)c1c(C)[nH]c(C)c1C(=O)COC(=O)CCOc1ccccc1OC	inactive	
COc1ccc(S(=O)(=O)N2CCOCC2)cc1NC(=O)c1c(-c2ccccc2)noc1C	inactive	
CCOC(=O)N1C/C(=C\c2ccccc2)C(=O)/C(=C/c2ccccc2)C1	active: 3.66 µM	
Cc1ccc(NC(=O)[C@@H]2CCCN2S(=O)(=O)c2ccccc2F)cc1	inconclusive [inhibitor, single point]	
O=C1CSC(=S)N1/N=C/c1cc(Br)c(O)c(Br)c1	inconclusive [inhibitor, single point]	
CCOCC(=O)Nc1nc2ccc(OC)cc2s1	inconclusive [inhibitor, partial curve, poor fit]	
O=Cc1cc2ccccc2nc1SCCCF	active: 4.61 µM	
CCOC(=O)c1c(S(=O)(=O)N2c3ccccc3CC2C)c(C)n(C)c1C (configuration not stated)	inconclusive [inhibitor, partial curve]	
CC(C)(C)OC(=O)N1CCCC(C(=O)Nc2cccc(C(=O)N3CCOCC3)c2)C1 (configuration not stated)	inactive	
CC1CCC(NC(=O)CCS(=O)(=O)c2ccc3c(c2)NC(=O)CS3)CC1 (configuration not stated)	inactive	
CCN(CC)c1ccc(NC(=O)CCc2nc3cccnc3n2Cc2cccs2)c(C)c1	inconclusive [inhibitor, single point]	
CC1CCCN(CCOCCOc2ccccc2-c2ccccc2)C1 (configuration not stated)	active: 23.1 µM	
O=C(NCc1ccccc1Cl)[C@H]1CCCN1C(=O)[C@H]1CCCN1C(=O)c1ccc(Cl)cc1	inconclusive [inhibitor, partial curve]	
COc1ccc(-n2c(SCC(=O)Nc3ccc4c(c3)OCO4)nc3ccccc3c2=O)cc1	inactive	
Cc1[nH]c2c(C)cccc2c(=O)c1CN1CCCCCC1	inactive	
O=C(NCc1nnnn1-c1ccc(F)cc1)c1cc2ccccc2o1	inactive	
N#Cc1cnc2c(-c3ccccc3)c(-c3ccccc3)nn2c1N	active: 18.4 µM	
O=C(CSCc1cccc(Cl)c1)N1CCN(Cc2ccc3c(c2)OCO3)CC1	inactive	
C=C(C)Cn1c(CCNC(=O)CCC)nc2ccccc21	inconclusive [inhibitor, single point]	
CN1CCN(S(=O)(=O)c2cccc(C(=O)NCCC3=CCCCC3)c2)CC1	inconclusive [inhibitor, single point]	
CCCOC(=O)c1ccc(NC(=O)CCOc2ccccc2)cc1	inconclusive [inhibitor, single point]	
C=CCN1CCN(C(c2ccccc2)c2nnnn2CCC(C)C)CC1 (configuration not stated)	active: 6.51 µM	
Cc1ccc(SCc2cc(=O)[nH]c(/N=C(\N)Nc3ccc(C)c(C)c3)n2)cc1	inconclusive [inhibitor, partial curve]	
COc1ccc(N2CCN(CC(=O)c3ccccc3)CC2)cc1	inconclusive [inhibitor, partial curve]	

SMILES	Potency	activity change, negative = growth inhibition
COc1ccc(NC(=O)C(c2cc3c(cc2[N+](=O)[O-])OCO3)N(C)c2ccccc2)cc1 (configuration not stated)	inconclusive [inhibitor, single point]	
COc1ccc(NC(=O)CN(C)C(=O)CNC(=O)c2ccc3ccccc3c2)cc1	inactive	
COCCc1nc2ccc(C(=O)N(C)Cc3cccc(-n4nc(C)cc4C)c3)cc2o1	inactive	
CNc1nc(=O)n(C2CCCO2)cc1C (configuration not stated)	inactive	
COc1ccc(N2C(=O)c3cccc4cccc(c34)C2=O)cc1	inactive	
CCOCCn1c(CN(Cc2ccccc2)Cc2ccccc2)nc2c1c(=O)n(C)c(=O)n2C	inconclusive [inhibitor, single point]	
CCCCN(C(=O)c1ccc([N+](=O)[O-])o1)c1c(N)n(CC(C)C)c(=O)[nH]c1=O	inconclusive [inhibitor, single point]	
COc1ccccc1C(=O)NC(C)c1cccc2ccccc12 (configuration not stated)	active: 3.66 µM	
CCc1ccc(S(=O)(=O)NC2CC(C)(C)NC(C)(C)C2)cc1	inactive	
COc1ccc(-c2nnc(NC(=O)c3ccc(F)cc3)o2)cc1	inconclusive [inhibitor, full curve]	
CNC(=S)N(CCc1c(C)[nH]c2ccc(C)cc12)Cc1cccs1	inconclusive [inhibitor, single point]	
c1ccc(C2=NNC(c3ccco3)=Nc3ccccc32)cc1	inconclusive [inhibitor, single point]	
CC(=O)Oc1cccc(N2C(=O)C3C4C=CC(C4=C(C)C)C3C2=O)c1 (configuration not stated)	inconclusive [inhibitor, single point]	
C#CCNC(=O)C1=C[C@@H](c2ccc3c(c2)OCO3)C[C@@H](OCc2ccc(CO)cc2)O1	inconclusive [inhibitor, single point]	
Cc1ccc2c(c1)N(C(=O)CCC(=O)NCc1cccc(Cl)c1)CC(C)O2 (configuration not stated)	active: 16.4 µM	
CCOc1ccc(N2CC(O)Cn3c2nc2c3c(=O)n(CCCc3ccccc3)c(=O)n2C)cc1 (configuration not stated)	inconclusive [inhibitor, single point]	
O=C(CSc1ncnc2sccc12)N1CCCCC1	inactive	
O=C(OCc1c(-c2ccccc2)ncc2ccccc12)c1cccc(Br)c1	inconclusive [inhibitor, single point]	
CCOC(=O)N1CCN(C(=O)CSc2nnc(-c3cc(OC)cc(OC)c3)o2)CC1	inconclusive [inhibitor, single point]	
Cc1cccc(C(=O)Nc2cccc(C(=O)N/N=C/c3ccccn3)c2)c1	inconclusive [inhibitor, single point]	
Cc1ccc(S(=O)(=O)Nc2cc3c(cc2C)n(C)c(=O)c(=O)n3C)c(C)c1		inconclusive: -36.6% [inhibitor]
N#C/C(=C\c1cn(Cc2ccccc2F)c2ccccc12)C(=O)NCc1ccco1	inactive	
Cc1ccc(C(=O)NCCCNC(=O)c2ccc(Cl)cc2)cn1	inconclusive [inhibitor, full curve]	
